Laboratory results reported in the supplement of paper PMC10369915.
The other results are listed elsewhere or left out. Rule as the data show it: active = 3.2 or more and inactive = the rest. Only a few entries rise above the background.

target: SHP2 C-SH2 domain E139D; assay: enrichment score (SH2-bound / input frequency) (ratio); bacterial display of known human phosphotyrosine sites (pTyr-Var adds point mutants) read by sequencing; higher = stronger binding; tyrosines were phosphorylated by kinases first; settings: peptide library: pTyr-Var
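Also: displayed peptides selected on beads carrying the immobilized SH2 domain, with library peptides lacking any tyrosine serving as negative controls.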

| Binder | enrichment score |
| --- | --- |
| DLKFHYDNTAG [KDR_Y1214_P1210L] | inactive: 1.11 |
| GKSFTYAAFHA [KCNT1_Y563] | inactive: 1.27 |
| ILTYKYLQKPM [KIT_Y547] | inactive: 0.766 |
| LITTLYIGFLG [KCNQ1_Y267] | inactive: 2.89 |
| DRKRQCELLKL [KIF4B_Y684_Y684C] | inactive: 1.35 |
| ADFFDYGRGLS [KHDRBS3_Y304_H306R_YF] | inactive: 0.903 |
| GCRSKHVGLWG [KCNQ1_Y184_Y184H] | inactive: 1.27 |
| TESALYGCTVL [KIAA1804_Y724] | inactive: 1.08 |
| ESLRPYDVMDV [KCNQ2_Y562] | inactive: 0.724 |
| DRSSLYLVAGP [KIAA1614_Y1083_N1078D] | inactive: 0.979 |
| ILTFKYLQIPM [KIT_Y547_K550I_YF] | active: 3.87 |
| RQGKDYIGAIP [KDR_Y951_V952I] | inactive: 0.7 |
| ILTYKYLQIPM [KIT_Y547_K550I] | inactive: 2 |
| KDFTKYVAFIE [KDM4B_Y31_N29T_YF] | inactive: 0.807 |
| TKEPKYEGAGS [KIAA1210_Y1615] | inactive: 0.436 |
| LFSINYLHFGE [KDM4C_Y201_YF] | active: 6.75 |
| QSSEGYGLGDR [KIAA1210_Y564] | inactive: 0.557 |
| LITTPYIGFLG [KCNQ1_Y267_L266P] | inactive: 1.29 |

target: SHP2 C-SH2 domain wild-type; assay: as above; settings: peptide library: pTyr-Var

| Binder | enrichment score |
| --- | --- |
| DLKFHYDNTAG [KDR_Y1214_P1210L] | inactive: 0.99 |
| GKSFTYAAFHA [KCNT1_Y563] | inactive: 0.97 |
| ILTYKYLQKPM [KIT_Y547] | inactive: 0.669 |
| LITTLYIGFLG [KCNQ1_Y267] | active: 3.51 |
| DRKRQCELLKL [KIF4B_Y684_Y684C] | inactive: 1.43 |
| ADFFDYGRGLS [KHDRBS3_Y304_H306R_YF] | inactive: 0.639 |
| GCRSKHVGLWG [KCNQ1_Y184_Y184H] | inactive: 1.58 |
| TESALYGCTVL [KIAA1804_Y724] | inactive: 1.48 |
| ESLRPYDVMDV [KCNQ2_Y562] | inactive: 0.692 |
| DRSSLYLVAGP [KIAA1614_Y1083_N1078D] | inactive: 0.796 |
| ILTFKYLQIPM [KIT_Y547_K550I_YF] | inactive: 3.07 |
| RQGKDYIGAIP [KDR_Y951_V952I] | inactive: 0.919 |
| ILTYKYLQIPM [KIT_Y547_K550I] | active: 3.38 |
| KDFTKYVAFIE [KDM4B_Y31_N29T_YF] | inactive: 1.08 |
| TKEPKYEGAGS [KIAA1210_Y1615] | inactive: 0.371 |
| LFSINYLHFGE [KDM4C_Y201_YF] | active: 6.36 |
| QSSEGYGLGDR [KIAA1210_Y564] | inactive: 0.392 |
| LITTPYIGFLG [KCNQ1_Y267_L266P] | inactive: 2.13 |

target: SHP2 N-SH2 domain L43F; assay: as above; settings: peptide library: pTyr-Var

| Binder | enrichment score |
| --- | --- |
| DLKFHYDNTAG [KDR_Y1214_P1210L] | inactive: 0.947 |
| GKSFTYAAFHA [KCNT1_Y563] | inactive: 1.07 |
| ILTYKYLQKPM [KIT_Y547] | inactive: 0.783 |
| LITTLYIGFLG [KCNQ1_Y267] | active: 3.43 |
| DRKRQCELLKL [KIF4B_Y684_Y684C] | inactive: 0.979 |
| ADFFDYGRGLS [KHDRBS3_Y304_H306R_YF] | inactive: 0.668 |
| GCRSKHVGLWG [KCNQ1_Y184_Y184H] | inactive: 1.4 |
| TESALYGCTVL [KIAA1804_Y724] | inactive: 1.35 |
| ESLRPYDVMDV [KCNQ2_Y562] | inactive: 0.779 |
| DRSSLYLVAGP [KIAA1614_Y1083_N1078D] | inactive: 0.801 |
| ILTFKYLQIPM [KIT_Y547_K550I_YF] | active: 3.24 |
| RQGKDYIGAIP [KDR_Y951_V952I] | inactive: 1.22 |
| ILTYKYLQIPM [KIT_Y547_K550I] | inactive: 3.16 |
| KDFTKYVAFIE [KDM4B_Y31_N29T_YF] | inactive: 0.879 |
| TKEPKYEGAGS [KIAA1210_Y1615] | inactive: 0.521 |
| LFSINYLHFGE [KDM4C_Y201_YF] | active: 6.1 |
| QSSEGYGLGDR [KIAA1210_Y564] | inactive: 0.38 |
| LITTPYIGFLG [KCNQ1_Y267_L266P] | inactive: 0.968 |

target: SHP2 N-SH2 domain T42A; assay: as above; settings: peptide library: pTyr-Var

| Binder | enrichment score |
| --- | --- |
| DLKFHYDNTAG [KDR_Y1214_P1210L] | inactive: 0.688 |
| GKSFTYAAFHA [KCNT1_Y563] | inactive: 1.17 |
| ILTYKYLQKPM [KIT_Y547] | inactive: 0.625 |
| LITTLYIGFLG [KCNQ1_Y267] | inactive: 2.66 |
| DRKRQCELLKL [KIF4B_Y684_Y684C] | inactive: 1.02 |
| ADFFDYGRGLS [KHDRBS3_Y304_H306R_YF] | inactive: 0.69 |
| GCRSKHVGLWG [KCNQ1_Y184_Y184H] | inactive: 1.22 |
| TESALYGCTVL [KIAA1804_Y724] | inactive: 0.91 |
| ESLRPYDVMDV [KCNQ2_Y562] | inactive: 0.842 |
| DRSSLYLVAGP [KIAA1614_Y1083_N1078D] | inactive: 0.968 |
| ILTFKYLQIPM [KIT_Y547_K550I_YF] | inactive: 3.06 |
| RQGKDYIGAIP [KDR_Y951_V952I] | inactive: 0.554 |
| ILTYKYLQIPM [KIT_Y547_K550I] | active: 5.2 |
| KDFTKYVAFIE [KDM4B_Y31_N29T_YF] | inactive: 0.889 |
| TKEPKYEGAGS [KIAA1210_Y1615] | inactive: 0.574 |
| LFSINYLHFGE [KDM4C_Y201_YF] | active: 7.37 |
| QSSEGYGLGDR [KIAA1210_Y564] | inactive: 0.412 |
| LITTPYIGFLG [KCNQ1_Y267_L266P] | inactive: 2.45 |

target: SHP2 N-SH2 domain T52S; assay: as above; settings: peptide library: pTyr-Var

| Binder | enrichment score |
| --- | --- |
| DLKFHYDNTAG [KDR_Y1214_P1210L] | inactive: 0.732 |
| GKSFTYAAFHA [KCNT1_Y563] | inactive: 1.08 |
| ILTYKYLQKPM [KIT_Y547] | inactive: 0.797 |
| LITTLYIGFLG [KCNQ1_Y267] | active: 3.22 |
| DRKRQCELLKL [KIF4B_Y684_Y684C] | inactive: 1.24 |
| ADFFDYGRGLS [KHDRBS3_Y304_H306R_YF] | inactive: 0.746 |
| GCRSKHVGLWG [KCNQ1_Y184_Y184H] | inactive: 1.42 |
| TESALYGCTVL [KIAA1804_Y724] | inactive: 0.962 |
| ESLRPYDVMDV [KCNQ2_Y562] | inactive: 0.808 |
| DRSSLYLVAGP [KIAA1614_Y1083_N1078D] | inactive: 0.822 |
| ILTFKYLQIPM [KIT_Y547_K550I_YF] | active: 3.35 |
| RQGKDYIGAIP [KDR_Y951_V952I] | inactive: 0.665 |
| ILTYKYLQIPM [KIT_Y547_K550I] | active: 3.94 |
| KDFTKYVAFIE [KDM4B_Y31_N29T_YF] | inactive: 0.905 |
| TKEPKYEGAGS [KIAA1210_Y1615] | inactive: 0.603 |
| LFSINYLHFGE [KDM4C_Y201_YF] | active: 6.86 |
| QSSEGYGLGDR [KIAA1210_Y564] | inactive: 0.34 |
| LITTPYIGFLG [KCNQ1_Y267_L266P] | inactive: 0.898 |

target: SHP2 N-SH2 domain wild-type; assay: as above; settings: peptide library: pTyr-Var

| Binder | enrichment score |
| --- | --- |
| DLKFHYDNTAG [KDR_Y1214_P1210L] | inactive: 0.822 |
| GKSFTYAAFHA [KCNT1_Y563] | inactive: 0.824 |
| ILTYKYLQKPM [KIT_Y547] | inactive: 0.609 |
| LITTLYIGFLG [KCNQ1_Y267] | active: 4.11 |
| DRKRQCELLKL [KIF4B_Y684_Y684C] | inactive: 1.46 |
| ADFFDYGRGLS [KHDRBS3_Y304_H306R_YF] | inactive: 0.795 |
| GCRSKHVGLWG [KCNQ1_Y184_Y184H] | inactive: 1.34 |
| TESALYGCTVL [KIAA1804_Y724] | inactive: 1.42 |
| ESLRPYDVMDV [KCNQ2_Y562] | inactive: 0.873 |
| DRSSLYLVAGP [KIAA1614_Y1083_N1078D] | inactive: 0.872 |
| ILTFKYLQIPM [KIT_Y547_K550I_YF] | inactive: 2.91 |
| RQGKDYIGAIP [KDR_Y951_V952I] | inactive: 0.921 |
| ILTYKYLQIPM [KIT_Y547_K550I] | inactive: 2.05 |
| KDFTKYVAFIE [KDM4B_Y31_N29T_YF] | inactive: 0.901 |
| TKEPKYEGAGS [KIAA1210_Y1615] | inactive: 0.502 |
| LFSINYLHFGE [KDM4C_Y201_YF] | active: 5.54 |
| QSSEGYGLGDR [KIAA1210_Y564] | inactive: 0.299 |
| LITTPYIGFLG [KCNQ1_Y267_L266P] | inactive: 1.47 |
